Results reported in PubChem BioAssay AID2147 (National Center for Advancing Translational Sciences (NCATS), 2009).
Among all 230,000 compounds or so, about 3,600 (1.6%) were called active. The shares of active, inactive and inconclusive entries below differ from those in the screen. Calls come from the whole dose curve; as a rule, active = well fitted inhibition curve with a large enough effect (not every such curve was filed as active); inconclusive = small, poorly fitted or top-dose-only effect, or another doubt; inactive = no such curve, though single readings can be large or run the other way. Potencies of inconclusive entries are doubtful fits and often do not repeat.

These compounds were tested against Lysine-specific demethylase 4E (Homo sapiens) (UniProt B2RXH2) (assay: qHTS Assay for Inhibitors of Human Jumonji Domain Containing 2E (JMJD2E)). Conditions: JMJD2E catalytic domain, FDH-coupled NADH fluorescence (FDH is formaldehyde dehydrogenase); series mostly up to 57.1 µM; activity change, negative = inhibition: at the top concentration.
Note: nearly all actives have a fitted effect of over 50% in size.
Potency is the fitted concentration of half-maximal effect; tags give direction and shape of the fitted curve.
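Throughout, for activity change, negative = inhibition: 0% = wells with enzyme and -100% = buffer wells without enzyme.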

UniProt B2RXH2, sequence (B2RXH2 whole entry, looked up, the tested form may be a part): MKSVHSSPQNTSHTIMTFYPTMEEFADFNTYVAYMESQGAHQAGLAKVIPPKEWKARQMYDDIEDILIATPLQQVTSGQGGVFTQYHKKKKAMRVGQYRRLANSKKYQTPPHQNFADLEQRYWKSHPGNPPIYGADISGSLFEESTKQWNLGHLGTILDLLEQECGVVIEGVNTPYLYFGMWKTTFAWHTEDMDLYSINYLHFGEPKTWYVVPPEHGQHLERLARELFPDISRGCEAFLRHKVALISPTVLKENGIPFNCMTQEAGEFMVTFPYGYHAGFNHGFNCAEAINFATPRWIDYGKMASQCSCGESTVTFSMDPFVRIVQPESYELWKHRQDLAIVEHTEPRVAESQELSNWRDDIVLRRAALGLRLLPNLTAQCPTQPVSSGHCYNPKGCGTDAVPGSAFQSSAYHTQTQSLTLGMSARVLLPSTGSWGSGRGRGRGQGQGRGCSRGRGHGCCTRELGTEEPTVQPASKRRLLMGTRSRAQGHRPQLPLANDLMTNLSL

Row | SMILES | activity change, negative = inhibition | Potency
1 | CCc1ccc(-n2c(SCc3c(C)noc3C)nnc2-c2ccncc2)cc1 | inactive: -0.628% | 
2 | Cc1ccc(-c2nc(-c3cccnc3)sc2CC(=O)O)cc1 |  | inconclusive: 31.6 µM [inhibitor, partial curve]
3 | COc1ccc(NC(=O)c2ccc(-n3cccn3)c([N+](=O)[O-])c2)cc1 | inactive: 7.46% | 
4 | O=C(NCC1OCCc2ccccc21)c1ccc(NC(=O)c2ccc(Cl)cc2Cl)cc1 (configuration not stated) |  | inconclusive: 39.8 µM [inhibitor, single point]
5 | O=C1Oc2ccccc2C(=O)/C1=C\N1CCN(c2ccccc2)CC1 | inactive: -2.97% | 
6 | Cc1ccc(OCC(=O)c2ccc(Cl)s2)c([N+](=O)[O-])n1 |  | inconclusive: 14.1 µM [inhibitor, partial curve, poor fit]
7 | COC(=O)c1c(NC(=O)COC(=O)[C@@H](NS(=O)(=O)c2cccc(Cl)c2)C(C)C)sc2c1CCC2 |  | inconclusive: 39.8 µM [inhibitor, single point]
8 | Cc1nn(-c2ccccc2)c2c1C(c1ccc(O)c(O)c1)N1C(=N2)C(Nc2ccccc2)=Nc2ccccc21 (configuration not stated) |  | active: 17.8 µM
9 | Cc1ccc(O)c(-c2cc(-c3ccccc3F)[nH]n2)c1 | inactive: -2.88% | 
10 | CCN(CC)Cc1nc2sc(C)c(C)c2c(=O)[nH]1 |  | inconclusive: 39.8 µM [inhibitor, single point]
11 | COC(=O)c1ccc(S(=O)(=O)c2ccccc2)c(N)c1 |  | inconclusive: 28.2 µM [inhibitor, partial curve]
12 | N=c1ncn(Cc2ccccc2)c2nc(SCCOc3ccccc3)[nH]c12 | inactive: -7.94% | 
13 | c1ccc(Cn2c3ccccc3c3nnc(SCCN4CCCCC4)nc32)cc1 | inactive: 0.662% | 
14 | Cc1ccc(S(=O)(=O)c2nc(C)oc2NCc2ccccc2)cc1 |  | inconclusive: 39.8 µM [inhibitor, single point]
15 | Cc1cc(-c2n[nH]c(=S)n2/N=C/c2c[nH]c3ccccc23)n[nH]1 | inactive: -16.4% | 
16 | CCOC(=O)CCCCC(=O)c1[nH]c(=O)[nH]c1CSc1nnc2c3ccccc3n(C(C)C)c2n1 | inactive: -7.42% | 
17 | Cc1ccccc1CN1CCN(Cc2ccccc2C(F)(F)F)CC1 |  | inconclusive: 35.5 µM [inhibitor, single point]
18 | Cn1c(N)c(C(=O)COC(=O)COc2ccc3ccccc3c2)c(=O)n(C)c1=O | inactive: -1.07% | 
19 | COc1cccc(C2=CC(c3cc(OC)ccc3OC)n3nnnc3N2)c1 (configuration not stated) | inactive: -20.1% | 
20 | Cc1ccc2oc(-c3cccc(N)c3)nc2c1 |  | inconclusive: 14.1 µM [inhibitor, partial curve]
21 | COc1cc(C(=O)NCc2nnc(SCC(=O)Nc3nccs3)o2)cc(OC)c1OC |  | inconclusive: 31.6 µM [inhibitor, single point]
22 | Cc1nn(CCC(=O)NNC(=S)Nc2ccc(F)cc2)c(C)c1[N+](=O)[O-] | inactive: 8% | 
23 | COc1ccc(-c2cc(C(=O)Nc3cc(S(=O)(=O)N4CCOCC4)ccc3N3CCOCC3)c3ccccc3n2)cc1 |  | inconclusive: 28.2 µM [inhibitor, partial curve]
24 | COCOc1c2c(c(OCOC)c3c(OCOC)cccc13)/C(=N/NS(C)(=O)=O)C1=C2CCCC1 |  | inconclusive: 39.8 µM [inhibitor, single point]

Row | SMILES | activity change, negative = inhibition | Potency
25 | OCCN1CCN(c2ncnc3sc(-c4ccccc4)cc23)CC1 |  | inconclusive: 22.4 µM [inhibitor, partial curve]
26 | COC(=O)CCSCC(=O)N1N=C(c2ccc(Br)cc2)CC1c1cccc(OC)c1OC (configuration not stated) |  | inconclusive: 39.8 µM [inhibitor, single point]
27 | CC(=O)Oc1ccc(N2C(=O)C3C(C2=O)C2(C)C=CC3(C)O2)cc1 (configuration not stated) | inactive: -3.4% | 
28 | COC(=O)c1cc2sc(Cl)cc2n1Cc1nc(-c2cccc(C)c2)oc1C | inactive: -3.48% | 
29 | CC(C)n1c(=O)[nH][nH]c1=S |  | active: 3.16 µM
30 | CCOC(=O)N/N=C/c1c(C)nn(-c2cccc(C(F)(F)F)c2)c1Cl | inactive: -3.65% | 
31 | CC(=O)OCCCNc1cc(Sc2ccc(C)cc2)c2nonc2c1[N+](=O)[O-] | inactive: 5.75% | 
32 | CCN(CC)CC(=O)Nc1ccc(-c2nc3cc(NC(=O)CN(CC)CC)ccc3o2)cc1 |  | inconclusive: 22.4 µM [inhibitor, partial curve]
33 | N#CCC(=O)NN=C1CCCCCCCCCCC1 | inactive: 59.8% | 
34 | Nc1nonc1OCCN1CCN(c2ccc([N+](=O)[O-])c3cccnc23)CC1 | inactive: -2.83% | 
35 | C/C(CC(=O)Nc1ccc(Cl)cc1Cl)=N\NC(=O)c1ccncc1 |  | inconclusive: 31.6 µM [inhibitor, single point]
36 | Cc1cc(/C=C2\NC(=S)N(C)C2=O)ccc1N1CCCC1 | inactive: -7.89% | 
37 | O=c1cc(-c2ccccc2)oc2cc(O[C@@H]3O[C@H](CO)[C@@H](O)[C@H](O)[C@H]3O)c(O)c(O)c12 |  | active: 12.6 µM
38 | CCN(CC)c1ccc(NC2CC(=O)N(CCc3ccc(OC)cc3)C2=O)cc1 (configuration not stated) |  | active: 12.6 µM
39 | CC1CCCCN1C(=O)CSc1ccc(-c2ccc(F)cc2)nn1 (configuration not stated) | inactive: 5.93% | 
40 | CCOc1ccc(CN2CCN(C(=O)c3ccccc3)CC2)cc1 |  | inconclusive: 31.6 µM [inhibitor, single point]
41 | COCCn1cc(C(=O)N2CCN(C)CC2)c2c3ccccc3n(C)c2c1=O |  | inconclusive: 25.1 µM [inhibitor, partial curve]
42 | COc1cc(-c2nc3ccc(C)cn3c2Nc2ccc3c(c2)OCCO3)ccc1O |  | inconclusive: 28.2 µM [inhibitor, partial curve]
43 | COC(=O)c1ccc(NC(=O)c2cccc(OC)c2)cc1 | inactive: 1.28% | 
44 | O=C(O)c1cc(S(=O)(=O)N2CCN(c3ccccn3)CC2)ccc1Cl |  | inconclusive: 12.6 µM [inhibitor, partial curve]
45 | Cc1ccc(NC(=O)c2ccc(CSc3ccccn3)cc2)c(O)c1 | inactive: -6.49% | 
46 | O=C(COC(=O)c1c2c(nc3ccccc13)CCN(Cc1ccccc1)C2)Nc1c(F)cccc1F |  | inconclusive: 31.6 µM [inhibitor, single point]
47 | Cc1nnc(NC(=O)C2C3C=CC(O3)C2C(=O)O)s1 (configuration not stated) |  | inconclusive: 39.8 µM [inhibitor, single point]
48 | CC(NC(=O)c1ccccc1N)c1ccccc1 (configuration not stated) |  | inconclusive: 28.2 µM [inhibitor, partial curve]

Row | SMILES | activity change, negative = inhibition | Potency
49 | Cc1ccccc1Oc1nc2c(C)cccn2c(=O)c1/C=C(\C#N)C(=O)NC1CCS(=O)(=O)C1 (configuration not stated) |  | inconclusive: 3.98 µM [inhibitor, full curve]
50 | Cc1nnc(Sc2cc(C(=O)NCCCOC(C)C)c3ccccc3n2)s1 |  | inconclusive: 39.8 µM [inhibitor, single point]
51 | Cc1cc(Cl)ccc1N=c1ssnc1Cl |  | active: 11.2 µM
52 | CCCOC(=O)C1=C(C)NC2=C(C(=O)CCC2)C1c1cc(OC)ccc1OC (configuration not stated) |  | inconclusive: 35.5 µM [inhibitor, single point]
53 | CN(CC(=O)Nc1ccccc1F)S(=O)(=O)c1ccc2c(c1)n(C)c(=O)c(=O)n2C |  | inconclusive: 20 µM [inhibitor, partial curve]
54 | Oc1ccc(O)c(Cc2nc3ccccc3[nH]2)c1 | inactive: -26.3% | 
55 | CCOC(=O)c1c(C2COc3ccccc3O2)csc1NC(=O)c1ccccc1 (configuration not stated) |  | inconclusive: 8.91 µM [inhibitor, single point]
56 | CS(=O)(=O)Nc1ccc(C2=NN(C(=O)c3ccco3)C(c3ccc(F)cc3)C2)cc1 (configuration not stated) |  | inconclusive: 35.5 µM [inhibitor, single point]
57 | Cc1ccn2cc(C34CC5CC(CC(C5)C3)C4)nc2c1 |  | inconclusive: 35.5 µM [inhibitor, single point]
58 | CCOc1ccc2[nH]c(=O)c(CN(Cc3ccco3)C(=O)c3ccc(Br)cc3)cc2c1 |  | inconclusive: 35.5 µM [inhibitor, partial curve]
59 | CCOC(=O)c1c(NC(=O)C(C)Sc2cccc[n+]2[O-])sc2c1CCN(Cc1ccccc1)C2 (configuration not stated) |  | inconclusive: 31.6 µM [inhibitor, partial curve]
60 | O=C(NCc1ccco1)C1CCN(c2ccc(S(=O)(=O)N3CCOCC3)cc2[N+](=O)[O-])CC1 | inactive: -4.54% | 
61 | Cc1ccc2nc(/C(C#N)=C\c3ccc(OC(=O)c4cccs4)cc3)[nH]c2c1 |  | inconclusive: 31.6 µM [inhibitor, single point]
62 | NC(=O)[C@@H]1[C@@H]2C(=O)N(c3ccc(F)cc3)C(=O)[C@@H]2[C@H]2C=Cc3ccccc3N21 |  | inconclusive: 25.1 µM [inhibitor, partial curve]
63 | C/C(=N\Nc1ccccc1)c1cc2ccccc2oc1=O | inactive: 6.94% | 
64 | Cc1cccc(CN2CCN(C(=O)c3ccccc3F)CC2)c1 |  | inconclusive: 35.5 µM [inhibitor, single point]
65 | Cc1ccccc1/C=C/c1nc2ccccc2c(=O)[nH]1 |  | inconclusive: 31.6 µM [inhibitor, partial curve]
66 | O=S(=O)(/N=C(/Nc1cc(N2CCOCC2)ncn1)c1ccc(F)cc1)c1ccccc1 |  | inconclusive: 39.8 µM [inhibitor, single point]
67 | COc1cccc(/C=N/NC(=O)c2ccccc2NC(=O)c2ccco2)c1OC |  | inconclusive: 22.4 µM [inhibitor, partial curve]
68 | CC(C)c1nc(N2CCCC2)c(C#N)c2c1CCCC2 |  | inconclusive: 25.1 µM [inhibitor, partial curve]
69 | CO/N=C\CC(=O)Nc1ccc(F)cc1 |  | inconclusive: 39.8 µM [inhibitor, single point]
70 | CCOC(=O)Cn1c(-c2ccc(Cl)nc2)nc2ccccc21 |  | inconclusive: 31.6 µM [inhibitor, partial curve]
71 | COc1ccccc1-c1cncnc1Nc1ccc(F)cc1 | inactive: 6.41% | 
72 | CCn1c(SCC(=O)N/N=C/c2ccc(C)o2)nnc1-c1ccc(C)cc1 | inactive: 5.26% | 
